Reference: article PMC4336329 (PLoS ONE, 2015)
The campaign covered roughly 310,000 compounds. About 14,000 (4.5%) showed an effect of 50% or more. The effect is printed as a negative number. The list shows a part of the results.

Each compound was assayed against human ether-à-go-go-related gene (hERG) potassium channel (human, UniProt Q12809) (assay: primary screen, population patch clamp on CHO cells stably expressing hERG).
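Note: peak tail current of the secondary pulse compared with the same well before compound.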

human ether-à-go-go-related gene (hERG) potassium channel, sequence (Q12809 whole entry, looked up): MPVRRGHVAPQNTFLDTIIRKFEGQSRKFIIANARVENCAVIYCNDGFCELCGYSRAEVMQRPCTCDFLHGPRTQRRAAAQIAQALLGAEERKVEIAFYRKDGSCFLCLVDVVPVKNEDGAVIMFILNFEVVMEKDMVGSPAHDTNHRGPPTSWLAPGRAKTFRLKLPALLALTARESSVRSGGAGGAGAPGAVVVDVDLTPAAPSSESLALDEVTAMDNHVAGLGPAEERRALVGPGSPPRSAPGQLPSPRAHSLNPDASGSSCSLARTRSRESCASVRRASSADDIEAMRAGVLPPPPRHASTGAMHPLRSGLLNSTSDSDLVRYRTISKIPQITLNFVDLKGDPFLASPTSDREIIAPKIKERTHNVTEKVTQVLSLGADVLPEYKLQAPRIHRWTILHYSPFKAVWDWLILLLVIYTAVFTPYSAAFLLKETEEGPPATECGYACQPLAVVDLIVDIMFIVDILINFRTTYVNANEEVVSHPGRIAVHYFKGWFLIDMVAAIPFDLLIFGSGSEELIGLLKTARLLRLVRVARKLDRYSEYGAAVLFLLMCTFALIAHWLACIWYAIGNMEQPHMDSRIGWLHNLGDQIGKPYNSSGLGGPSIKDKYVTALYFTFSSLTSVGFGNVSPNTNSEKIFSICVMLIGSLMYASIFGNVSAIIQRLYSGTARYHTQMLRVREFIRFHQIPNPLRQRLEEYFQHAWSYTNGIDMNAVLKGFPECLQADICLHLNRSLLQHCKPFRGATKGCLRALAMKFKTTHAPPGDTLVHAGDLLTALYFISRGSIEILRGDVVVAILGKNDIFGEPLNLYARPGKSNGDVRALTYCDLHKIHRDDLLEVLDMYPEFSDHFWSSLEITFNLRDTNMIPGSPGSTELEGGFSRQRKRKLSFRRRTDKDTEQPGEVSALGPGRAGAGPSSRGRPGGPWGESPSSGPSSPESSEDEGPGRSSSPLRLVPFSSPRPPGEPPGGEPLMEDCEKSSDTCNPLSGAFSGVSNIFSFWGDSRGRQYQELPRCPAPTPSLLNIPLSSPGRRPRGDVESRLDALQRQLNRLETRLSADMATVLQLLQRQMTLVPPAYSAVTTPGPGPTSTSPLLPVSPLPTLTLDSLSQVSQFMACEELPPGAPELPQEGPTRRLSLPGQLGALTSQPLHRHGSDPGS

| SMILES | hERG current change (%, negative = inhibition) at 10uM |
| --- | --- |
| O=C(c1ccc2c(c1)OCO2)N(c1ccc(F)cc1)C1C=CS(=O)(=O)C1 (stereo not drawn) | -1.14% |
| COC(=O)C(=O)/C=C(\O)c1ccc(C)cc1 | -2.4% |
| Cc1cc(C(=O)NNc2ccc(Cl)cc2)no1 | 7.88% |
| CCn1cc(CN2CCC(n3nccc3NC(=O)C(OC)c3ccccc3)CC2)cn1 (stereo not drawn) | 12.4% |
| CC(C)(C)CN1CCN(Cc2c[nH]c3ccccc23)CC1CCO (stereo not drawn) | 15.5% |
| COC(=O)c1ccc(CSc2nnc3n(Cc4ccccc4OC)c(=O)c4ccccc4n23)o1 | -19.3% |
| Cc1ccc(C(=O)NNS(=O)(=O)c2ccccc2[N+](=O)[O-])cc1 | 2.03% |
| COCCNC(=O)c1ccccc1NC(=O)c1cc(OC)cc(OC)c1 | -4.44% |
| Cc1ccc(S(=O)(=O)NCC(=O)N(CC(=O)NCC2CCCO2)CC2CCCO2)cc1 (stereo not drawn) | 12.4% |
| CCOc1ccc(Cc2nnc(SCC(=O)Nc3ccccc3)n(N)c2=O)cc1 | -25% |
| Cc1ccc(S(=O)(=O)N2CCN(Cc3ccccc3)CC2)cc1 | -9.58% |
| CCCCN(CC)CCCNC(=O)C1CCN(c2ncnc3c2sc2cccc(F)c23)CC1 | -70.3% |
| C=CCc1cccc(/C=N/NC(=O)CCC(=O)Nc2ccc(F)cc2)c1O | 9.26% |
| C=CCc1ccccc1OCCCCN1CCCC1 | -21.9% |
| CC1CCN(CC#CCOc2ccc(Cl)cc2)CC1.O=C(O)C(=O)O | -5.81% |
| Cc1ccc(/C=N/NC(=O)CCCOc2ccc(Cl)cc2Cl)cc1[N+](=O)[O-] | 1.01% |
| C#CCNC(=O)C1=C[C@H](c2ccc(C(F)(F)F)cc2)C[C@H](OCCCCO)O1 | -6.12% |
| N#CCCCSc1nnnn1-c1cccc(Cl)c1 | -22.2% |
| Cc1ccc(OCc2ccccc2Br)c([N+](=O)[O-])n1 | 16.7% |
| Cn1c(=O)cc(N2CCc3ccccc32)[nH]c1=O | 14.4% |
| CCC(=Nc1ccccc1O)C1=C(O)CC(c2ccccc2)CC1=O (stereo not drawn) | -1.38% |
| O=C(NCCC1=CCCCC1)c1ccc(-n2cncn2)c([N+](=O)[O-])c1 | -22.5% |
| Fc1ccc(NC(=S)NCc2ccc3c(c2)OCO3)cc1 | 5.52% |

| SMILES | hERG current change (%, negative = inhibition) at 10uM |
| --- | --- |
| Cc1ccccc1N1C(=O)C2C3C=CC(C2C1=O)N(C)C3=O (stereo not drawn) | 2.4% |
| Cc1nn(-c2ccc(Cl)cc2Cl)c(C)c1C(=O)O | 22.4% |
| COc1ccc(NC(C)=O)cc1NC(=O)CN1CCN(C(=O)c2ccco2)CC1 | 13.9% |
| CN(c1ccccc1)S(=O)(=O)c1ccc(Cl)c(C(=O)Nc2ccncc2)c1 | -5.35% |
| COc1cc(C(=O)N2CCN(c3ccccc3Cl)CC2)ccc1OCC(=O)N1CCOCC1 | -28.6% |
| O=S(=O)(N/N=C1\CC(c2ccccc2)Oc2ccccc21)c1ccccc1 (stereo not drawn) | -0.656% |
| O=C(Cc1ccccc1[N+](=O)[O-])NC1CC2CCC1C2 (stereo not drawn) | -9.51% |
| Oc1ccc(N2Cc3ccccc3C2)cc1 | 22.8% |
| COc1nc(NCCO)nc(Nc2cc(Cl)ccc2OC)n1 | -0.478% |
| CCn1c(SCC(=O)Nc2sc(C)c(C)c2C#N)nnc1C(C)C | 11.5% |
| CSCCCN1CCCC(CO)(Cc2ccccc2F)C1 (stereo not drawn) | -38.3% |
| CC(OC(=O)c1cccs1)C(=O)NCC1CCCO1 (stereo not drawn) | -3% |
| CCS(=O)(=O)N1CCC(C(=O)Oc2ccccc2Br)CC1 | 8.16% |
| O=C(Cn1nc(C(=O)O)c2ccccc2c1=O)Nc1cccc(Br)c1 | 9.42% |
| CCCCNC(=O)Nc1ccccc1C(=O)NCCC | -3.27% |
| FC(F)Oc1ccccc1/C=N/n1cnc2ccccc21 | 13.2% |
| CCCCCCC(=O)Nc1c2c(nc3ccccc13)N(C)CC2 | -68% |
| CSc1ccc(Cl)c(C(=O)OCC(=O)NC2CC2)c1 | 10.4% |
| Cc1cc(/C=C2\SC(=Nc3ccc(F)cc3)NC2=O)c(C)n1-c1ccc(S(N)(=O)=O)cc1 | 3.73% |
| COC(=O)c1ccccc1NC(=O)c1c(O)c2c([nH]c1=O)CCCC2 | 7.77% |
| CCOC(=O)c1c(C)[nH]c2cc(Br)c(OC)cc12 | 18.3% |
| CCOc1ccccc1NC(=O)c1cc(-c2cc(OC)c(OC)c(OC)c2)nc2ccccc12 | 19.8% |
| COc1ccc(/C(O)=C2/C(=O)C(=O)N(CCCN(C)C)C2c2ccccc2)cc1OC (stereo not drawn) | -4.33% |

| SMILES | hERG current change (%, negative = inhibition) at 10uM |
| --- | --- |
| O=C(NCCN1CCOCC1)c1ccc(=O)oc1 | 17.6% |
| O=c1[nH]nc(Cc2ccc([N+](=O)[O-])cc2)c2ccccc12 | -70.2% |
| Cc1[nH]ccc2c1[nH]c1cc(=O)ccc12 | -23.7% |
| Cc1cccc(S(=O)(=O)N2CN(CC3CCCO3)c3nc4ccccc4nc32)c1 (stereo not drawn) | -28.4% |
| O=C(Nc1ccc(S(=O)(=O)N2CCCC2)cc1)c1ccc(OCC2CCCO2)cc1 (stereo not drawn) | 0.877% |
| CC1(C)C2CC[C@]3(C)C(CC=C4[C@@H]5C[C@@](C)(CO)[C@@H](O)C[C@]5(C(=O)O)CC[C@]43C)[C@@]2(C)CC[C@@H]1O (stereo partly drawn) | 18% |
| CCc1ccccc1NC(=O)NC1CC2CCC(C1)N2Cc1ccco1 (stereo not drawn) | 15.4% |
| Cc1csc2nc(CCNS(=O)(=O)c3ccc4c(c3)OCCO4)cn12 | 2.18% |
| COc1cccc2sc3ccc(C#CC4(O)CCCCC4)cc3c(=O)c12 | 2.07% |
| CCn1c(Nc2ccccc2Cl)nc2ccccc21 | 18.2% |
| O=C(Nc1ccc(C(=O)c2ccc(C(=O)O)c(C(=O)O)c2)cc1)c1ccccc1 | 17.2% |
| Cc1ccc(C(=O)Nc2cccc(NC(=O)c3ccc(C)o3)n2)o1 | -37.3% |
| O=[N+]([O-])c1ccccc1OCCN1CCOCC1 | -1.28% |
| COc1ccccc1C(=O)N/C(=C\c1ccc(Br)cc1)C(=O)NCCO | -28.5% |
| CC1CCCCN1C(=O)Cn1cc(C#N)c2ccccc21 (stereo not drawn) | 5.63% |
| O=C(C[n+]1ccccc1)N/N=C/c1ccco1.[Cl-] | 7.8% |
| CCOC(=O)NC(=O)C(=CNc1ccccc1C)C(=O)NC(=O)OCC | -19.8% |
| CCc1cc2c(=O)c(-c3cnn(-c4ccccc4)c3)c(C)oc2cc1OCC(=O)Nc1ccc(F)c(F)c1 | 5.02% |
| CCCCCNC(=O)C(C)NS(=O)(=O)c1ccc(OC)cc1 (stereo not drawn) | -6.87% |
| c1ccc(-c2nnc(-c3ccccc3)nn2)cc1 | 5.69% |
| Clc1cccc(OCCN2CCNCC2)c1.O=C(O)C(=O)O | -6.36% |
| CCCC(=O)Nc1cccc(NC(=O)c2ccc3c(c2)OCCO3)c1 | 5.87% |
| COc1ccc(C(C[N+](=O)[O-])c2c(-c3ccccc3)cc3ccccn23)c(OC)c1 (stereo not drawn) | -3.97% |

| SMILES | hERG current change (%, negative = inhibition) at 10uM |
| --- | --- |
| CCOc1ccc(N2CC(O)=C(c3ccccc3)C2=N)cc1 | -10.4% |
| CCOC(=O)Cc1c(C)nc(-c2ccccc2)[nH]c1=O | 4.89% |
| COc1ccc2c(Cl)c(-c3nnc4n3CCCCC4)sc2c1 | -51.2% |
| CCc1ccc2[nH]c(=O)c(CN(Cc3ccccc3)C(=O)Nc3ccccc3OC)cc2c1 | 4.2% |
| Cc1nc2sccn2c(=O)c1S(=O)(=O)Nc1ccc(N2CCN(C)CC2)cc1 | 21% |
| Cc1cccc(OP(N)(=O)Oc2cccc(C)c2C)c1C | 12.5% |
| CC1(C)Cc2cccc(OCC(=O)NCc3cccs3)c2O1 | -0.101% |
| Cc1onc(-c2ccccc2Cl)c1C(=O)Nc1ccc(Cl)cn1 | 1.42% |
| CC1=C(C(=O)N(C)CCC#N)C2(CCCCC2)OC1=O | -4.85% |
| COCC(C)NC(=S)N1CCN(c2ccccc2Cl)CC1 (stereo not drawn) | 3.38% |
| N#Cc1c(-c2ccccc2)nc(SCc2nc(N)nc(N3CCCCC3)n2)[nH]c1=O | -5.19% |
| CN(c1ccc(OCC(=O)NCc2cccnc2)cc1)S(=O)(=O)c1ccc(Cl)cc1 | -58.4% |
| Clc1cccc(Cl)c1CSc1nnc2ccccn12 | 2.94% |
| Cc1cc(C)nc(-n2nc(C)cc2NC(=O)CN2CCCC(C)C2)n1 (stereo not drawn) | -56% |
| O=C(CCN1CCOCC1)NNC(=O)/C(=C/c1ccccc1)NC(=O)c1ccccc1 | -3.16% |
| COc1ccc(CC2(CO)CCN(CC3=CC[C@H]4C[C@@H]3C4(C)C)CC2)cc1 | -58.7% |
| CC(=O)c1ccc(Sc2nnnn2-c2ccccc2)c([N+](=O)[O-])c1 | -31.5% |
| CCCc1[nH]nc2c1C(c1ccc(OC(=O)c3ccco3)cc1)C(C#N)=C(N)O2 (stereo not drawn) | -28.2% |
| Cc1ccc(S(=O)(=O)N/N=C/c2cnn(C)c2C)cc1 | 8.21% |
| N#Cc1c(C(F)(F)F)cc(-c2ccc(Cl)c(Cl)c2)nc1SCCN1CCOCC1 | 6.62% |
| COc1cccc(CNC(=O)CCC2CCCN(Cc3cc4ccccc4o3)C2)c1 (stereo not drawn) | -75.6% |
